Experimental data published in PubChem BioAssay AID1159614 (National Center for Advancing Translational Sciences (NCATS), 2016).
Screen size: about 45,000 compounds; about 65 (0.1%) were called active. The call rests on the fitted dose curve; in most records, active means well fitted activation curve with a large enough effect; inconclusive means small, poorly fitted or top-dose-only effect; inactive means no such curve, though single readings can be large or run the other way. This is one part of the list.

Each compound was assayed against Galactocerebrosidase (Homo sapiens) (UniProt P54803) (assay: A Novel Cell-Based Assay to Identify Small Molecules for B -Galactocerebrosidase). Settings: 145M-Twi-hGALC-G270D cells (Twitcher mouse brain line with human GALC G270D), HMU-beta-Gal fluorescence, 48 h; series mostly up to 57.5 µM; activation: at the top concentration.
UniProt P54803, sequence (P54803 whole entry, looked up): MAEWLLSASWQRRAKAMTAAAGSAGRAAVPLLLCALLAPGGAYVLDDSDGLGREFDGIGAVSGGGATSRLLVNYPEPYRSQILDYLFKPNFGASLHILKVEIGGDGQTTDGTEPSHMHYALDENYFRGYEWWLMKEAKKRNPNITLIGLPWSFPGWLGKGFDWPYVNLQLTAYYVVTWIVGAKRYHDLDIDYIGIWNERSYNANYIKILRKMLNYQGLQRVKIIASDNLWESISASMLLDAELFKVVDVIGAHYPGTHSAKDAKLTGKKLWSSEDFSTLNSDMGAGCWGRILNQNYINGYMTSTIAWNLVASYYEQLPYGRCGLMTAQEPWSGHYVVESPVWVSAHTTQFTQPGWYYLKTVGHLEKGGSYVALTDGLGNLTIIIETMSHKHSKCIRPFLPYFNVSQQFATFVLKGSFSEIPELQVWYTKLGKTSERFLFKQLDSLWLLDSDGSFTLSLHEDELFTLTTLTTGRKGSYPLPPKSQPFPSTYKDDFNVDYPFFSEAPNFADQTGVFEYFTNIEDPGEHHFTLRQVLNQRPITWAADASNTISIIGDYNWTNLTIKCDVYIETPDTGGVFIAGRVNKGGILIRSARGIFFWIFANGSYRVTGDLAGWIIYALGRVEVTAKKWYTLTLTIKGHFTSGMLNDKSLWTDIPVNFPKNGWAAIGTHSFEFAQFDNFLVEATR
How it was run: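 Fluorogenic HMU-b-Gal hydrolysis (0.1 mM final, pH 5.2 citrate-phosphate with 1 mg/mL sodium taurocholate; carbonate stop buffer) measures mutant GALC activity after compound treatment of live 145M-Twi Twitcher brain cells stably carrying human GALC-G270D, with wild-type GALC line alongside; activation sought.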
Further: 0% is about no effect; nearly all actives have a fitted effect of over 65% in size.

activation, inactive:
O=C(O)c1ccccc1Nc1cc(Cl)ccc1C(=O)O 3.62% [at 23.8 µM]
O=c1[nH]c2cc(Br)ccc2n2cccc12 -12.7%
Cc1cc(C)c(-c2n[nH]c3c2C(c2ccccc2F)N(Cc2ccco2)C3=O)c(O)c1 (configuration not stated) -16.6%
O=C(c1cnc(N2CCOCC2)c2ccccc12)N1CCN(c2ccccc2)CC1 4.01%
COc1ccc(CNC(=O)CN2C(=O)CC(c3ccc(C)c(C)c3)=Nc3ccccc32)cc1 -13.1%
Cc1ccc(-n2ncc3c(NC4CCCCCC4)ncnc32)cc1 1.14%
COc1ccc(C(=O)NCCn2cc(SCc3c(F)cccc3Cl)c3ccccc32)cc1 -2.92%
O=C(CN1C(=O)COc2ccc(S(=O)(=O)NC3CCCC3)cc21)NCc1ccc(Cl)cc1 -12.1%
CCOc1ccc(CNC(=O)CSc2nnc(C)c3c(C)n(-c4ccc(Cl)cc4)nc23)cc1 -18.2%
CCN(CC)CCSc1c(C(C)C)cnc2c1c(=O)n(C)c(=O)n2C -12.9%
COc1cc(NC(=O)N2CCc3c(sc4c3CCCC4)C2c2ccccc2)cc(OC)c1OC (configuration not stated) -8.65%
COc1ccc(OC)c2sc(N3CCN(C(=O)c4ccco4)CC3)nc12 -0.265%
CN1CCN(C(=O)C(=O)Nc2c3c(nn2-c2ccc(Cl)cc2)CSC3)CC1 -6.24%
Cc1c(C(=O)N2CCC(C)CC2)c(S(=O)(=O)N(Cc2ccccc2)C(C)(C)C)c(C)n1C -0.944%
COC(=O)c1ccc(C(=O)OC)c(NC(=O)CN(c2ccccc2)S(=O)(=O)N(C)C)c1 -6.58%
COc1cccc(CNC(=O)CSC2=Nc3ccccc3N=C(c3ccc(F)cc3)C2)c1 -25.5%
CCOc1ccccc1CNC(=O)C1CCCN(c2nnc(C)c3c(C)n(-c4ccccc4)nc23)C1 (configuration not stated) -6.83%
Cc1ccc(N2C(=O)CCSC23C(=O)N(Cc2ccccc2)c2ccccc23)cc1 (configuration not stated) 2.29%
CCOCCCn1c(=N)c(C(=O)NCc2cccnc2)cc2c(=O)n3ccccc3nc21 -11%
CCN(CC)C(=O)c1ccc2c(c1)N(Cc1ccc(C(F)(F)F)cc1)C(=O)c1ccccc1S2 -8.71%
Cc1nn2c(=O)cc(COC(=O)c3cccc(NC(=O)COc4ccccc4C)c3)nc2s1 -9.13%
CCC(=O)NCCc1nc2cc(NC(=O)c3cccc(Br)c3)ccc2n1C -3.25%
Cc1ccc(NC(=O)Nc2nnc(N3CCCC3)s2)cc1C -22%
Cn1c(=O)c(C(=O)O)nn(-c2ccccc2)c1=O 21.9%
Cc1ccc(Cn2c3ccccc3c3cnn(CC(=O)Nc4cc(Cl)ccc4C)c(=O)c32)cc1 -9.74%
Cc1c(CNC2CCCCC2)c(C(=O)O)c(C)n1Cc1ccc(Cl)cc1 11.4%
Cc1cc(C)c(NC(=O)Cn2c(=O)n(CCC(=O)N3CCc4ccccc4C3)c(=O)c3ccccc32)c(C)c1 0.26%
CCN(CC)S(=O)(=O)c1ccc2c(c1)N(CC(=O)N1CCN(c3cccc(C)c3C)CC1)C(=O)CO2 -24.8%
Clc1ccc(-n2ncc3c(NC4CCCC4)ncnc32)cc1 -14.8%
COc1ccc(Nc2ncnc3sc4c(c23)CCCC4)cc1 -6.42%
Cn1nnnc1SCCCNCc1ccccc1OCc1ccc(Cl)cc1 -24.7%
O=C(NCc1ccccc1Cl)c1ccc(CS(=O)(=O)c2ccc(Br)cc2)o1 -0.172%
NS(=O)(=O)c1cc2c(cc1Cl)NC(CSCc1ccccc1)=NS2(=O)=O -13.9%
CC(NC(=O)Cn1ccc2cc(S(=O)(=O)N3CCCCCC3)ccc21)c1ccccc1 (configuration not stated) -10.6%
CCOC(=O)C1CCCN(c2nc3c(S(=O)(=O)c4ccc(CC)cc4)nnn3c3ccc(Cl)cc23)C1 (configuration not stated) 9.99%
COc1ccc(C)cc1NC(=O)Nc1nnc(N2CCCCC2)s1 7.7%
CCc1nn(CCCC(=O)NCc2ccc(OC(C)C)cc2)c(=O)c2cc3occc3n12 -8.57%
COc1ccc(N2CCN(C(=O)c3cccn3-c3nnc(N4CCCC4)s3)CC2)cc1 -6.06%
O=C(CSc1n[nH]c(-c2ccccc2Cl)n1)NCCc1ccccc1 -0.179%
CCOc1cc(CNS(=O)(=O)c2ccc3c(c2)C(C)(C)C(=O)N3)cc(OCC)c1OCC 5.73%
CCOC(=O)c1c(S(=O)(=O)NCC(=O)N(C)Cc2ccccc2)c(C)n(C)c1C 6.23%
CCN1CCN(c2ncnc3c2cnn3-c2cc(Cl)ccc2C)CC1 -14.8%
CC1CCN(S(=O)(=O)c2csc(C(N)=O)c2)CC1 -22%
COc1ccccc1N1CCN(c2ncnc3c2c(-c2ccccc2)cn3-c2cccc(C)c2)CC1 -16.9%
CCOC(=O)c1cnc(N2CCN(c3ccc(OC)cc3)CC2)c2ccccc12 -5.56%
CC(=O)Nc1nonc1-c1nnc(SCC(=O)Nc2ccc(C)c(Cl)c2)n1C -11.8%
CCOc1ccc2c(c1)c(=O)c(S(=O)(=O)c1ccc(C)cc1)cn2Cc1ccccc1Cl -19.6%
Cc1ccc(CSc2nc3cccnc3n2Cc2ccc(C(=O)NC3CCCCC3)cc2)cc1 -11.1%
CCCOc1ccc(C2c3c(oc4ccc(F)cc4c3=O)C(=O)N2CCc2ccc(OC)cc2)cc1 (configuration not stated) -15%
O=C(CSc1oc(-c2ccc(F)cc2)nc1S(=O)(=O)c1ccc(Br)cc1)NC1CCCCC1 -9.56%
Cc1cccc(CN2CCC(CNc3ncnc4onc(-c5ccc(Cl)cc5)c34)CC2)c1 -11.3%
CCCCOC(=O)c1ccc(Nc2ncnc3c2cnn3-c2cccc(C)c2)cc1 -6.5%
COc1ccc(-c2nc(S(=O)(=O)c3ccc(C)cc3)c(N3CCCCC3)o2)cc1 -23.8%
Cc1ccc(CNC(=O)CN2C(=O)CC(c3ccc(C)c(C)c3)=Nc3ccccc32)cc1 -27.1%
O=C(NCc1cccc(Cl)c1)NCc1noc2ccccc12 -18.3%
COc1cccc(N2CCN(c3ncnc4c3c(-c3ccccc3)cn4-c3ccc(F)cc3)CC2)c1 -13%
CCCCN(CC)C(=O)CCCn1c(=O)c2cccn2c2ccccc21 -8.33%
Cc1ccc(-c2nnc3c4ccccc4c(C)nn23)cc1NC(=O)c1cccc(Br)c1 -7.24%
Clc1cccc(-n2cc(-c3ccccc3)c3c(NC4CCCC4)ncnc32)c1 -13.9%
COc1ccccc1NC(=O)CSc1nc2c(oc3ccccc32)c(=O)n1Cc1ccco1 -17.9%
COc1ccc(NC(=O)C2CCCN(S(=O)(=O)c3cccc4nonc34)C2)cc1Cl (configuration not stated) -11.4%
Cc1ccc(Cl)cc1N(C)C(=O)C1CCCN(c2ncnc3onc(-c4ccc(F)cc4)c23)C1 (configuration not stated) -14.7%
COc1ccc(CNC(=O)CCNS(=O)(=O)c2ccc3c(c2)CCCC(=O)N3)cc1 -20.4%
Cc1ccc(Cn2c(CCNC(=O)C(C)C)nc3ccccc32)cc1 -11.2%
COc1ccc(-c2nc(SCC(=O)NCc3ccccc3Cl)n[nH]2)cc1 5.88%
CCOC(=O)CCc1c(C)nc2c(c(C)nn2-c2ccc(C)cc2)c1C 9.22%
O=C(Cn1nc(-c2ccc(Cl)cc2)ccc1=O)NCCc1ccccc1 -5.92%
O=C(C1CCC1)N1CCc2cc(S(=O)(=O)NCCc3ccccc3)ccc21 0.548%
O=c1[nH]c(SCc2c(F)cccc2Cl)nc2c1CCCC2 3.18%
COc1ccc(-c2nc(CSCC(=O)N3CCN(c4ccccc4)CC3)c(C)o2)cc1 -5.62%
CC(=O)c1cccc(NS(=O)(=O)c2cccc(S(=O)(=O)c3ccc(Br)cc3)c2)c1 -7.67%
COc1ccc(N2CCN(C(=O)CSCc3ccc(C)cc3)CC2)cc1 -21.4%
Cc1ccc2nc(COc3cccc(NC(=O)COc4ccc(F)cc4)c3)cc(=O)n2c1 -19%
Cc1ccc(NC(=O)CCS(=O)(=O)c2ccc3c(c2)oc(=O)n3C)c(Br)c1 -12.7%
Cc1cc(C)cc(-n2c(SCC(=O)NC3CCCCC3)nc3c([nH]c4ccccc43)c2=O)c1 -11.7%
CCOc1cc(S(=O)(=O)NCCc2c(C)[nH]c3ccc(C)cc23)ccc1Br -11.6%
COc1ccc(NC(=O)c2cc3c(C)nn(-c4ccccc4)c3s2)c(OC)c1 -3.68%
Cc1c(Cl)cccc1Nc1nn2c(=O)c3ccc(C(=O)N(C)Cc4ccccc4)cc3nc2s1 -23%
O=C(Nc1cccc(-c2nc3ccccc3o2)c1)c1cccc2c(Cl)cccc12 -1.17%
COCCNC(=O)c1[nH]c2cc(C)ccc2c1Sc1ccc(Cl)cc1 -23.7%
Cc1ccccc1NC(=O)c1ccc(N(Cc2ccccc2)S(C)(=O)=O)cc1 2.85%
COc1ccc(CNC(=O)c2cnc3ccc(C)cn3c2=O)cc1 -16.3%
CCc1nn(CC(=O)NC(C)CC)c(=O)c2cc3occc3n12 (configuration not stated) -12.6%
CC(C)(C)OC(=O)N1CCC(c2c(C(=O)Nc3ccc4c(c3)OCO4)cnn2-c2ccccc2)CC1 -3.46%
O=C(COc1ccccc1)OCc1cc(=O)n2nc(-c3cccs3)sc2n1 -9.22%
CC(C)OC(=O)OCOP(=O)(CO[C@H](C)Cn1cnc2c(N)ncnc21)OCOC(=O)OC(C)C -2.92%
Cc1c(Cl)cccc1NC(=O)c1cc2nc(-c3ccc4c(c3)OCO4)cc(C(F)(F)F)n2n1 -11.2%
COC(=O)c1ccccc1NC(=O)CCS(=O)(=O)c1nc(-c2ccc3c(c2)OCO3)cc(C(F)(F)F)n1 -8.69%
COC(=O)c1c(-c2cccs2)csc1NC(=O)c1ccc(C(C)C)cc1 -22.1%
CCOCCCn1c(=N)c(S(=O)(=O)c2ccc(Cl)cc2)cc2c(=O)n3cccc(C)c3nc21 -10.8%
COc1ccccc1CNc1ncnc2c1nnn2C -12.5%
O=C(NCc1ccc2c(c1)CCN2C(=O)c1ccncc1)c1ccccc1F -20.6%
O=C(NCc1ccc(F)cc1)c1ccc2oc(=O)n(Cc3ccccc3)c2c1 -12.1%
COc1ccccc1NC(=O)C(=O)NCC(c1cccnc1)N1CCc2ccccc2C1 (configuration not stated) -16.1%
COc1cccc(CNC(=O)Cn2c(=O)oc3cc(S(=O)(=O)N4CCCCCC4)ccc32)c1 -15.6%
CN1CC(=O)N(CC(=O)Nc2ccc(OC(F)(F)F)cc2)c2ccccc2C1=O 5.33%

Potency, inactive:
Cn1cnc([N+](=O)[O-])c1Sc1ncnc2nc[nH]c12
